Measured values as given in the BET-seq Pho4 binding data (Le et al. 2018).
The list shows a part of the results. These are noisy estimates, calculated here from bound and input reads.

molecular target: T1, Pho4 (S. cerevisiae) (UniProt P07270); test: relative binding free energy (BET-seq); higher = weaker binding; settings: reference: library average
T1 sequence: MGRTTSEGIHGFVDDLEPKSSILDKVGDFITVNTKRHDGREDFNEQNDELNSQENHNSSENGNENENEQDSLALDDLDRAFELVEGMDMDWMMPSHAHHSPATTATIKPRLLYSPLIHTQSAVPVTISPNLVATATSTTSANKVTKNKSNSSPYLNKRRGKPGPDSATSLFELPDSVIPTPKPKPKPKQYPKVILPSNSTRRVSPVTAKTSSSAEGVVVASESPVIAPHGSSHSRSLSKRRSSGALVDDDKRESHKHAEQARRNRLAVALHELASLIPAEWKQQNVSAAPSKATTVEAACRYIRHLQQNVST

Row | Sequence | relative binding free energy [kcal/mol]
1 | TTGAGCACGTGGGATA | -0.18
2 | AAATCCACGTGTGGGT | 0.08
3 | GTTATCACGTGAGGTC | 0.3
4 | AGTTTCACGTGAGATA | 0.31
5 | AGGCTCACGTGGGGCA | 0.13
6 | GGTAGCACGTGGCTGA | -0.12
7 | TCTGGCACGTGTAGTT | -0.01
8 | TACTACACGTGGGGTT | -0.15
9 | TGCTGCACGTGGGTCT | -0.21
10 | ATTGTCACGTGTCAGT | 0
11 | GGGCGCACGTGTGTCG | -0.06
12 | CGTAGCACGTGAGGGT | 0.11
13 | AATGGCACGTGAGGCG | 0.11
14 | TTGTTCACGTGGGGTC | 0.18
15 | ATTCTCACGTGTTTTA | 0.18
16 | AAGTGCACGTGGTTGC | -0.11
17 | TTTAACACGTGGCAGT | -0.04
18 | TGGTGCACGTGGTCTA | -0.23
19 | GTATTCACGTGCGCGG | 0.08
20 | TTCAGCACGTGCTGTT | -0.19
21 | GGCAACACGTGTGTGT | 0.16
22 | TAAAGCACGTGGTGGA | -0.12
23 | TCGAGCACGTGTGTTT | -0.05
24 | TGGAACACGTGTGCGT | -0.01
25 | GTCGACACGTGTTGTG | 0.12

Row | Sequence | relative binding free energy [kcal/mol]
26 | GGAGGCACGTGAGGCG | 0.14
27 | ATTAACACGTGGGTAT | -0.25
28 | TTAGCCACGTGGGGGT | -0.26
29 | TGTTACACGTGGTATC | -0.04
30 | GAATACACGTGGGTGG | -0.11
31 | ATGTTCACGTGCGTAG | 0.12
32 | AGGAACACGTGTATGT | 0.16
33 | GGTACCACGTGGGGAG | -0.27
34 | ACAGACACGTGGTGTG | -0.1
35 | GGGTACACGTGGGGGG | 0.08
36 | AGGTCCACGTGGTCGT | -0.13
37 | TGTTCCACGTGGTTTT | -0.11
38 | GAGGTCACGTGACTGG | 0.24
39 | GGGTACACGTGGTTGG | 0.1
40 | TTTGACACGTGTTTTT | 0.14
41 | TTCGGCACGTGGTAGA | -0.01
42 | ATGTGCACGTGAGTGA | 0.08
43 | TCGATCACGTGGGGCG | 0.03
44 | TTTTCCACGTGAGAGT | 0.13
45 | CTTGGCACGTGCGAGT | -0.12
46 | GTTCGCACGTGGTATT | -0.1
47 | AGGGGCACGTGGGTCA | -0.26
48 | TCCGGCACGTGGGTAG | -0.24
49 | AAGTTCACGTGCGGTC | 0.32
50 | AGTAACACGTGATGTG | 0.15

Row | Sequence | relative binding free energy [kcal/mol]
51 | AGATGCACGTGTTGTA | -0.02
52 | ATTTGCACGTGCTTGT | 0.05
53 | AGCGGCACGTGCTTGG | -0.2
54 | TGTGACACGTGATAAT | 0.05
55 | CTTTTCACGTGGATTT | 0.27
56 | GGGGTCACGTGTGAAC | 0.17
57 | CTTTTCACGTGGTACG | 0.16
58 | TAACGCACGTGGGTTG | -0.16
59 | TTATGCACGTGTGAAA | 0.15
60 | AGGCTCACGTGGGGTC | 0.08
61 | TTGTGCACGTGGGAAT | -0.09
62 | CTGTTCACGTGCGGGT | 0.23
63 | TTCAGCACGTGTGTAG | -0.19
64 | ATATACACGTGTATTT | 0.03
65 | AGATTCACGTGGTTTG | 0.13
66 | GCTGTCACGTGGTCTG | 0.01
67 | GTAAACACGTGGTTTT | -0.03
68 | GATTTCACGTGTTAGT | 0.46
69 | TGAAACACGTGTGGTA | 0.18
70 | GCTGTCACGTGGGTTG | 0.04
71 | GGTTACACGTGAGATA | 0.21
72 | TGTTACACGTGTTGCC | 0.37
73 | GGAGGCACGTGGCTTC | 0
74 | GGAGGCACGTGATTGT | -0.01
75 | CGGGTCACGTGCGGAG | 0.09

Row | Sequence | relative binding free energy [kcal/mol]
76 | TTAGTCACGTGAGTCT | 0.3
77 | ATTTCCACGTGGTTGT | -0.01
78 | GATTGCACGTGGGTTA | -0.06
79 | AGCTGCACGTGGTTTG | -0.12
80 | TTGTTCACGTGTTATA | 0.27
81 | GGATACACGTGGTTTA | -0.01
82 | TTTTCCACGTGGTTGG | 0.01
83 | TGTGCCACGTGCAAGG | -0.09
84 | GGGCTCACGTGAGTAT | 0.41
85 | GGTCACACGTGCTTTG | 0.23
86 | AGTGGCACGTGTGGAA | 0.04
87 | AAGGGCACGTGGAGAT | 0.02
88 | TTGGTCACGTGTTGTG | 0.18
89 | TGATTCACGTGCGGGA | 0.14
90 | ATTGGCACGTGGTCTT | -0.16
91 | AGTAACACGTGGAATA | 0.21
92 | TGATGCACGTGTGATA | 0
93 | CGTGGCACGTGGTGTA | -0.2
94 | TATGGCACGTGTGTTG | -0.03
95 | CTTAGCACGTGAGGGG | 0.17
96 | ACAATCACGTGGTTAG | 0.25
97 | GGTTACACGTGTAGTC | 0.07
98 | ATTATCACGTGGTAGT | 0.04
99 | TCATGCACGTGAATGT | 0.33
100 | TTTTACACGTGTTAGT | 0.29

Row | Sequence | relative binding free energy [kcal/mol]
101 | TTATACACGTGATGCG | 0.03
102 | CGTTACACGTGGTTGG | 0
103 | TGTCTCACGTGTTTGG | 0.14
104 | TTATGCACGTGAAATT | 0.27
105 | TGTCCCACGTGGTTTT | -0.1
106 | CGTATCACGTGATATG | 0.24
107 | TCACTCACGTGTGTGT | 0.31
108 | GATTACACGTGTGCGT | 0.25
109 | ATTGTCACGTGTATTC | -0.02
110 | GTCTTCACGTGTTCGG | 0.33
111 | ATATTCACGTGAAGGA | 0.27
112 | TTCCTCACGTGTAGGT | 0.11
113 | TACTGCACGTGTGAGT | -0.01
114 | TAGAGCACGTGACTGG | -0.03
115 | GGCAGCACGTGTGCGG | 0
116 | TTATGCACGTGGGGAA | -0.05
117 | TGTTACACGTGGCTAG | 0.03
118 | AAGCTCACGTGGTGGG | 0.08
119 | GGTGTCACGTGAGGGG | 0.3
120 | GAAGGCACGTGGTGAG | -0.23
121 | TGGTTCACGTGAAAGC | 0.35
122 | CGTATCACGTGGTGAG | 0.05
123 | GCTAGCACGTGTCGTT | 0.14
124 | TTGGGCACGTGGGCAG | -0.19
125 | ATTTTCACGTGGCTTA | 0.22

Row | Sequence | relative binding free energy [kcal/mol]
126 | TCTAGCACGTGGGTGT | -0.21
127 | GGCATCACGTGGTAAG | 0.07
128 | GCGTGCACGTGGGCGT | -0.19
129 | CAAATCACGTGTGTTG | 0.19
130 | ACGTGCACGTGTGTAG | 0.05
131 | TGGAACACGTGTCGGG | 0.11
132 | TTTAACACGTGTTAGC | -0.01
133 | GGGATCACGTGTATTT | 0.23
134 | AGGGGCACGTGGTGGA | -0.2
135 | CTATGCACGTGGTATG | -0.12
136 | GGTTACACGTGCATGG | 0.17
137 | ATGTACACGTGGGACG | 0.02
138 | GTCATCACGTGTTTAG | 0.22
139 | GGTACCACGTGGGTGC | -0.21
140 | ATACTCACGTGGTGTT | 0
141 | AGCGGCACGTGTTGGC | -0.2
142 | CGAGGCACGTGGAATT | 0.15
143 | TGTATCACGTGATCGT | 0.18
144 | GTTGTCACGTGACTTT | 0.23
145 | AAGGGCACGTGGGCCG | -0.15
146 | AGTGTCACGTGAGGTA | 0.21
